From the supplement of paper PMC4967469
A lower IC50 marks a more sensitive line; a limit (>, <) means that the fit lies beyond the doses tested. The AUC spans the tested range (256-fold, ending at the top dose) of the same fit: 1 means no effect, lower means more sensitive. For part of these data: An inferred top dose is not printed in the source and was worked back from the curve model. For part of these data: Where an entry number is given, a second screen of the drug exists; the two often differ.

Assays:
Experiment in all cases: Viability of human cancer cell lines after 72 h of drug (GDSC screen)
NVP-TAE684 = compound: COc1cc(N2CCC(N3CCN(C)CC3)CC2)ccc1Nc1ncc(Cl)c(Nc2ccccc2S(=O)(=O)C(C)C)n1 [NVP-TAE684]; conditions: top dose 2 µM
Procedure: (§1)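 Human cancer cell lines in 384-well plates, medium with 10% serum, drug for 72 h over a 256-fold dose range (nine 2-fold or five 4-fold steps up to the top dose). Adherent lines were fixed and stained with the nucleic acid dye Syto60, suspension lines read with resazurin; signal relative to control wells, capped at 0 and 100%. One two-parameter sigmoid per drug and line, fitted in a mixed model over all curves with the slope shared within a line.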

Belinostat = compound: O=C(/C=C/c1cccc(S(=O)(=O)Nc2ccccc2)c1)NO [Belinostat]; conditions: top dose 20 µM; top dose inferred
Procedure: as §1

NSC-207895 = compound: CN1CCN(c2ccc([N+](=O)[O-])c3no[n+]([O-])c23)CC1 [NSC-207895]; conditions: top dose 20 µM; top dose inferred
Procedure: as §1

AMG-706 = compound: CC1(C)CNc2cc(NC(=O)c3cccnc3NCc3ccncc3)ccc21 [AMG-706]; conditions: top dose 2 µM; top dose inferred
Procedure: as §1

JNK Inhibitor VIII = compound: CCOc1nc(NC(=O)Cc2cc(OC)ccc2OC)cc(N)c1C#N [JNK Inhibitor VIII]; conditions: top dose 10 µM; top dose inferred
Procedure: as §1

CGP-60474 = compound: OCCCNc1cc(-c2ccnc(Nc3cccc(Cl)c3)n2)ccn1 [CGP-60474]; conditions: top dose 0.256 µM; top dose inferred
Procedure: as §1

OSI-906 = compound: C[C@]1(O)C[C@@H](c2nc(-c3ccc4ccc(-c5ccccc5)nc4c3)c3c(N)nccn32)C1 [OSI-906]; conditions: top dose 2.56 µM; top dose inferred
Procedure: as §1

FTI-277 = compound: COC(=O)[C@H](CCSC)NC(=O)c1ccc(NC[C@@H](N)CS)cc1-c1ccccc1 [FTI-277]; conditions: top dose 1.024 µM; top dose inferred
Procedure: as §1

JQ1 = compound: Cc1sc2c(c1C)C(c1ccc(Cl)cc1)=N[C@@H](CC(=O)OC(C)(C)C)c1nnc(C)n1-2 [JQ1]
Procedure: as §1

JNJ-26854165 = compound: c1ccc2c(CCNc3ccc(Nc4ccncc4)cc3)c[nH]c2c1 [JNJ-26854165]; conditions: top dose 10 µM
Procedure: as §1

SB-715992 = compound: Cc1ccc(C(=O)N(CCCN)[C@@H](c2nc3cc(Cl)ccc3c(=O)n2Cc2ccccc2)C(C)C)cc1 [SB-715992]; conditions: top dose 0.128 µM; top dose inferred
Procedure: as §1

Docetaxel = compound: CC(=O)O[C@@]12CO[C@@H]1C[C@H](O)[C@@]1(C)C(=O)[C@H](O)C3=C(C)[C@@H](OC(=O)[C@H](O)[C@@H](NC(=O)OC(C)(C)C)c4ccccc4)C[C@@](O)([C@@H](OC(=O)c4ccccc4)[C@H]21)C3(C)C [Docetaxel]; conditions: top dose 0.0125 µM
Procedure: as §1

YM155 = compound: COCC[n+]1c2c(n(Cc3cnccn3)c1C)C(=O)c1ccccc1C2=O [YM155]; conditions: top dose 5.12 µM
Procedure: as §1

Cyclopamine = compound: CC1=C2C[C@H]3[C@@H](CC=C4C[C@@H](O)CC[C@@]43C)[C@@H]2CC[C@]12O[C@@H]1C[C@H](C)CN[C@H]1[C@H]2C [Cyclopamine]; conditions: top dose 16 µM; top dose inferred
Procedure: as §1

[1] = top dose 1 µM, screen: GDSC drug entry 1218, top dose inferred
[2] = top dose 2.56 µM, screen: GDSC drug entry 163

Cell Line | AUC (NVP-TAE684) | IC50 (NVP-TAE684) | AUC (Belinostat) | IC50 (Belinostat) | AUC (NSC-207895) | IC50 (NSC-207895) | AUC (AMG-706) | IC50 (AMG-706) | AUC (JNK Inhibitor VIII) | IC50 (JNK Inhibitor VIII) | AUC (CGP-60474) | IC50 (CGP-60474) | AUC (OSI-906) | IC50 (OSI-906) | AUC (FTI-277) | IC50 (FTI-277) | AUC (JQ1; [1]) | IC50 (JQ1; [1]) | AUC (JQ1; [2]) | IC50 (JQ1; [2]) | AUC (JNJ-26854165) | IC50 (JNJ-26854165) | AUC (SB-715992) | IC50 (SB-715992) | AUC (Docetaxel) | IC50 (Docetaxel) | AUC (YM155) | IC50 (YM155) | AUC (Cyclopamine) | IC50 (Cyclopamine)
EC-GI-10 (oesophagus, adherent) | 0.989 | > 2000 nM | 0.821 | 11400 nM | 0.987 | > 20000 nM | 0.968 | > 2000 nM | 0.974 | > 10000 nM | 0.948 | > 256 nM | 0.989 | > 2560 nM | 0.987 | > 1020 nM | 0.988 | > 1000 nM | 0.989 | > 2560 nM | 0.923 | > 10000 nM | 0.986 | > 128 nM | 0.511 | 0.837 nM | 0.918 | > 5120 nM | 0.989 | > 16000 nM
IST-SL2 (small cell lung carcinoma, suspension) | 0.9 | > 2000 nM | 0.988 | > 20000 nM | 0.988 | > 20000 nM | 0.975 | > 2000 nM | 0.989 | > 10000 nM | 0.565 | 24.1 nM | 0.977 | > 2560 nM | 0.988 | > 1020 nM | 0.976 | > 1000 nM | 0.752 | 844 nM | 0.862 | 8450 nM | 0.664 | 22.8 nM | 0.931 | > 12.5 nM | 0.988 | > 5120 nM | 0.905 | > 16000 nM
P32-ISH (Burkitt lymphoma, suspension) | 0.812 | 760 nM | 0.163 | 174 nM | 0.596 | 2140 nM | 0.995 | > 2000 nM | 0.995 | > 10000 nM | 0.567 | 23.3 nM | 0.987 | > 2560 nM | 0.995 | > 1020 nM | 0.839 | 453 nM | 0.568 | 234 nM | 0.933 | 9770 nM | 0.662 | 19.9 nM | 0.954 | > 12.5 nM | 0.01 | < 20 nM | 0.887 | 10200 nM
SJSA-1 (bone, adherent) | 0.748 | 715 nM | 0.546 | 1700 nM | 0.979 | > 20000 nM | 0.959 | > 2000 nM | 0.982 | > 10000 nM | 0.654 | 45.3 nM | 0.733 | 815 nM | 0.874 | > 1020 nM | 0.981 | > 1000 nM | 0.553 | 228 nM | 0.931 | > 10000 nM | 0.688 | 29 nM | 0.508 | 0.822 nM | 0.26 | 59.6 nM | 0.966 | > 16000 nM
A4-Fuk (B-cell lymphoma, suspension) | 0.399 | 65.3 nM | 0.75 | 6810 nM | 0.891 | > 20000 nM | 0.985 | > 2000 nM | 0.986 | > 10000 nM | 0.588 | 28.2 nM | 0.287 | 38.9 nM | 0.98 | > 1020 nM | 0.983 | > 1000 nM | 0.553 | 224 nM | 0.816 | 5830 nM | 0.831 | 85.7 nM | 0.879 | > 12.5 nM | 0.194 | 37.3 nM | 0.985 | > 16000 nM
DEL (lymphoid neoplasm, suspension) | 0.062 | < 7.81 nM | 0.266 | 322 nM | 0.974 | > 20000 nM | 0.991 | > 2000 nM | 0.994 | > 10000 nM | 0.571 | 24 nM | 0.994 | > 2560 nM | 0.967 | > 1020 nM | 0.939 | > 1000 nM | 0.82 | 1080 nM | 0.994 | > 10000 nM | 0.744 | 33 nM | 0.977 | > 12.5 nM | 0.016 | < 20 nM | 0.846 | 8200 nM
LAN-6 (neuroblastoma, adherent) | 0.557 | 185 nM | 0.762 | 8470 nM | 0.978 | > 20000 nM | 0.98 | > 2000 nM | 0.983 | > 10000 nM | 0.764 | 110 nM | 0.626 | 381 nM | 0.981 | > 1020 nM | 0.975 | > 1000 nM | 0.854 | > 2560 nM | 0.864 | > 10000 nM | 0.983 | > 128 nM | 0.868 | > 12.5 nM | 0.419 | 184 nM | 0.984 | > 16000 nM
NH-12 (neuroblastoma, adherent) | 0.939 | > 2000 nM | 0.231 | 185 nM | 0.921 | > 20000 nM | 0.973 | > 2000 nM | 0.98 | > 10000 nM | 0.975 | > 256 nM | 0.695 | 608 nM | 0.97 | > 1020 nM | 0.983 | > 1000 nM | 0.845 | 2200 nM | 0.961 | > 10000 nM | 0.856 | 124 nM | 0.875 | > 12.5 nM | 0.56 | 477 nM | 0.983 | > 16000 nM
